# The antibiotic and cytotoxicity screens of Wong et al. (2023)
# The other results are listed elsewhere or left out.
# Assays:
# HSkMC = human skeletal muscle cells; test: cytotoxicity call (relative viability < 0.9); conditions: 10 µM
# HepG2 = test: cytotoxicity call (relative viability < 0.9); conditions: 10 µM
# S. aureus RN4220 = test: growth inhibition call (relative growth <= 0.2); conditions: 50 µM
Structure (SMILES),cytotoxicity call (HSkMC),cytotoxicity call (HepG2),growth inhibition call (S. aureus RN4220)
CN1CCN(C(=O)C[C@@H]2CC[C@@H]3[C@H](COc4ccc(NC(=O)c5cccs5)cc4C(=O)N3C)O2)CC1,inactive,inactive,inactive
C[C@@H]1CCCCO[C@@H](CN(C)C(=O)C2CCCCC2)[C@@H](C)CN([C@H](C)CO)C(=O)c2cc(NS(=O)(=O)c3ccc(F)cc3)ccc2O1,inactive,inactive,inactive
Cc1noc(C)c1NC(=O)Nc1ccc2c(c1)CC(=O)N([C@@H](C)CO)C[C@H](C)[C@@H](CN(C)Cc1ccc(-c3ccccc3)cc1)O2,inactive,inactive,inactive
NC(=O)[C@@H]1CC[C@@H]2CN1C(=O)N2OS(=O)(=O)O,inactive,inactive,inactive
C[C@@H](N)C(=O)OC(C)(C)Cc1ccc(Cl)cc1,inactive,inactive,inactive
C[C@H]1CN([C@@H](C)CO)C(=O)Cc2cc(NC(=O)Nc3ccc(C(F)(F)F)cc3)ccc2O[C@H]1CN(C)C(=O)Nc1ccc(F)cc1,inactive,active,inactive
O=C(O)C=C(O)C(=O)O,inactive,inactive,inactive
Nc1nccs1,inactive,inactive,inactive
C[C@@H]1CN([C@H](C)CO)C(=O)c2cc(NS(=O)(=O)c3ccc(F)cc3)ccc2O[C@@H](C)CCCCO[C@H]1CN(C)C(=O)Nc1ccc2c(c1)OCO2,inactive,inactive,inactive
C[C@@H]1CCCCO[C@H](CN(C)Cc2ccccc2)[C@@H](C)CN([C@@H](C)CO)C(=O)c2cc(NC(=O)c3ccncc3)ccc2O1,inactive,inactive,inactive
CO[C@@H]1CN(C)C(=O)c2cc(NC(=O)NC3CCCCC3)ccc2OC[C@H](C)N(CCc2ccccc2)C[C@H]1C,inactive,active,inactive
C[C@@H]1CN([C@H](C)CO)C(=O)Cc2cc(NC(=O)NC3CCCCC3)ccc2O[C@H]1CN(C)C(=O)Nc1cccc2ccccc12,inactive,inactive,inactive
C[C@H](CO)N1C[C@H](C)[C@@H](CN(C)S(=O)(=O)c2ccc(Cl)cc2)Oc2c(NC(=O)c3ccc(-c4nccs4)cc3)cccc2C1=O,inactive,inactive,inactive
COc1ccc(NC(=O)Nc2ccc3c(c2)C(=O)N([C@@H](C)CO)C[C@H](C)[C@H](CN(C)C(=O)Nc2cccc4ccccc24)O3)cc1,inactive,active,inactive
C[C@H](CO)N1C[C@H](C)[C@@H](CN(C)S(=O)(=O)c2ccc(Cl)cc2)OCCCC[C@H](C)Oc2ccc(NC(=O)Nc3ccc4c(c3)OCO4)cc2C1=O,inactive,inactive,inactive
CO[C@@H]1CN(C)C(=O)c2ccc(NC(=O)C3CC3)cc2OC[C@@H](C)N(C(=O)Nc2ccc(C(F)(F)F)cc2)C[C@H]1C,inactive,inactive,inactive
O=C(/C=C/c1cccc(-c2cn(-c3ccc(C[C@H]4C(=O)O[C@@H](Cc5ccccc5)[C@H]5[C@@H]6C=CCCC=C6CN54)cc3)nn2)c1)NO,inactive,inactive,inactive
CC(C)NC(=O)N(C)C[C@H]1OCCCC[C@H](C)Oc2ccc(NC(=O)Nc3ccccc3)cc2C(=O)N([C@@H](C)CO)C[C@H]1C,inactive,inactive,inactive
Cc1noc(C)c1S(=O)(=O)Nc1ccc2c(c1)CC(=O)N([C@@H](C)CO)C[C@@H](C)[C@H](CN(C)C(=O)Nc1ccc3c(c1)OCO3)O2,inactive,inactive,inactive
O=C(CN1CCOCC1)NCC[C@@H]1CC[C@@H](NC(=O)c2ccccc2F)[C@H](CO)O1,inactive,inactive,inactive
CCS(=O)(=O)N1CC[C@]2(CC1)CN(CC1CCOCC1)[C@H](CO)c1c2c2ccc(cc2n1C)OC,inactive,inactive,inactive
O=C(O)CCC/C=C\C/C=C\C/C=C\C/C=C\CCCCCO,inactive,inactive,inactive
COc1ccsc1CN,inactive,inactive,inactive
CC(C)(C)NC[C@@]1(CO)SC(N)=NC1=O,inactive,inactive,inactive
COc1ccc(S(=O)(=O)Nc2ccc3c(c2)C(=O)N([C@@H](C)CO)C[C@@H](C)[C@@H](CN(C)S(=O)(=O)c2cccs2)O3)cc1,inactive,inactive,inactive
C[C@H]1CCCCO[C@@H](CN(C)C(=O)Nc2ccc(C(F)(F)F)cc2)[C@@H](C)CN([C@@H](C)CO)C(=O)c2cc(NC(=O)Nc3ccccc3)ccc2O1,inactive,inactive,inactive
O=C(C[C@@H]1C[C@H]2c3cc(NC(=O)C4CCOCC4)ccc3O[C@H]2[C@H](CO)O1)NCCN1CCCCC1,inactive,inactive,inactive
C[C@@H]1CCCCO[C@H](CN(C)C(=O)c2ccccc2)[C@H](C)CN([C@@H](C)CO)C(=O)c2cc(NS(=O)(=O)c3ccccc3)ccc2O1,inactive,inactive,inactive

Structure (SMILES),cytotoxicity call (HSkMC),cytotoxicity call (HepG2),growth inhibition call (S. aureus RN4220)
C=CCC[C@@H](Cc1ccc(F)cc1)C(=O)OC[C@@H](NC(=O)[C@@H](CC=C)CC(=O)N[C@H](CO)Cc1ccccc1)C(C)(C)C,inactive,active,inactive
Cc1noc(C)c1NC(=O)Nc1ccc2c(c1)C(=O)N([C@@H](C)CO)C[C@@H](C)[C@@H](CN(C)Cc1ccncc1)OCCCC[C@H](C)O2,inactive,inactive,inactive
C[C@H]1CCCCO[C@@H](CN(C)C(=O)NC2CCCCC2)[C@@H](C)CN([C@@H](C)CO)C(=O)c2cc(NS(=O)(=O)c3ccc(Cl)cc3)ccc2O1,inactive,inactive,inactive
CCNC(=O)[C@H]1[C@H](CO)[C@H]2Cn3c(ccc(-c4cccc(OC)c4)c3=O)[C@H]2N1S(C)(=O)=O,inactive,inactive,inactive
NCC[C@H]1CC[C@H](NC(=O)C2CCC2)[C@@H](CO)O1,inactive,inactive,inactive
N#Cc1cc2[nH]c(=O)c(=O)[nH]c2cc1[N+](=O)[O-],inactive,inactive,inactive
COc1ccc(NC(=O)Nc2ccc3c(c2)CC(=O)N([C@H](C)CO)C[C@@H](C)[C@H](CN(C)S(=O)(=O)c2c(C)noc2C)O3)cc1,inactive,inactive,inactive
COc1ccccc1S(=O)(=O)N(C)C[C@H]1OCc2cn(nn2)CCCC(=O)N([C@@H](C)CO)C[C@H]1C,inactive,inactive,inactive
C[C@@H]1CCCCO[C@@H](CN(C)Cc2ccc(Cl)c(Cl)c2)[C@H](C)CN([C@H](C)CO)C(=O)c2cc(NC(=O)NC3CCCCC3)ccc2O1,inactive,inactive,inactive
COc1cccc(NC(=O)N[C@H]2C=C[C@H](CC(=O)N3CCN(C)CC3)O[C@H]2CO)c1,inactive,inactive,inactive
Cc1cccc(S(=O)(=O)N2C[C@H](O)COC[C@H]3O[C@@H](CC(=O)NCc4ccc5c(c4)OCO5)CC[C@@H]32)c1,inactive,inactive,inactive
N[C@](CC1c2ccccc2Oc2ccccc21)(C(=O)O)[C@H]1C[C@@H]1C(=O)O,inactive,inactive,inactive
C[N+](C)(C)CCCCCCNC(=O)[C@@H]1C[C@@H]2C(=O)N[C@@H](Cc3ccccc3)C(=O)N2[C@@H]1c1cccc(OCCO)c1,inactive,inactive,inactive
CSc1cccc2sc(Nc3ccc(Cl)cc3)nc12,inactive,inactive,active
C[C@H](CO)N1C[C@H](C)[C@H](CN(C)CC2CC2)Oc2ccc(NS(=O)(=O)c3cn(C)cn3)cc2CC1=O,inactive,inactive,inactive
C[C@@H]1CCCCO[C@H](CN(C)C(=O)Nc2ccc(F)cc2)[C@@H](C)CN([C@@H](C)CO)C(=O)c2cc(NS(=O)(=O)c3ccc(Cl)cc3)ccc2O1,inactive,active,inactive
CC[C@@H](C)CCCCC(=O)N[C@@H](CCN)C(=O)N[C@H](C(=O)N[C@@H](CCN)C(=O)N[C@H]1CCNC(=O)[C@H]([C@@H](C)O)NC(=O)[C@H](CCN)NC(=O)[C@H](CCN)NC(=O)[C@H](CC(C)C)NC(=O)[C@@H](Cc2ccccc2)NC(=O)[C@@H](CCN)NC1=O)[C@@H](C)O,inactive,inactive,inactive
C[C@H](CO)N1C[C@H](C)[C@H](CN(C)C(=O)Nc2ccccc2)OCCCC[C@H](C)Oc2ccc(NC(=O)CCC(F)(F)F)cc2C1=O,inactive,inactive,inactive
C[C@@H]1CCCCO[C@H](CN(C)C(=O)Nc2ccccc2)[C@@H](C)CN([C@@H](C)CO)C(=O)c2cc(NC(=O)Cc3ccccc3)ccc2O1,inactive,inactive,inactive
C[C@@H]1CN([C@H](C)CO)C(=O)c2cc(NC(=O)Cc3ccccc3)ccc2O[C@@H](C)CCCCO[C@@H]1CN(C)C(=O)Nc1cccc2ccccc12,inactive,inactive,inactive
CC1(C)SC2C(NC(=O)C(N)c3ccccc3)C(=O)N2C1C(=O)[O-].[Na+] (stereo not given),inactive,inactive,inactive
Cc1noc(C)c1NC(=O)Nc1ccc2c(c1)C(=O)N([C@H](C)CO)C[C@@H](C)[C@H](CN(C)Cc1ccc(C(=O)O)cc1)OCCCC[C@@H](C)O2,inactive,inactive,inactive
COc1cccc2cc(C(C)=O)oc12,inactive,inactive,inactive
C[C@@H]1CN([C@H](C)CO)C(=O)c2cccc(NS(=O)(=O)c3ccccc3)c2O[C@@H]1CN(C)Cc1ccc(-c2ccccc2)cc1,inactive,active,inactive
C[C@H]1CCCCO[C@@H](CN(C)S(=O)(=O)c2ccccc2)[C@@H](C)CN([C@@H](C)CO)C(=O)c2cc(NC(=O)Nc3ccc(C(F)(F)F)cc3)ccc2O1,inactive,active,inactive
COc1ccc(N)nc1,inactive,inactive,inactive
C[C@H]1O[C@@H](O[C@H]2[C@@H](O)C[C@H](O[C@H]3[C@@H](O)C[C@H](O[C@H]4CC[C@@]5(C)[C@H](CC[C@@H]6[C@@H]5C[C@@H](O)[C@]5(C)[C@@H](C7=CC(=O)OC7)CC[C@]65O)C4)O[C@@H]3C)O[C@@H]2C)C[C@H](O)[C@@H]1O,active,active,inactive
